Reference: the antibiotic and cytotoxicity screens of Wong et al. (2023)
The other results are listed elsewhere or left out.

What follows are molecules tested on S. aureus RN4220 (assay: growth inhibition call (relative growth <= 0.2)). Details: 50 µM.

Growth inhibition call, inactive:
C[C@@H]1CN([C@@H](C)CO)C(=O)c2cccc(NC(=O)Nc3cccc4ccccc34)c2O[C@H]1CN(C)CC1CC1, Cc1noc(C)c1S(=O)(=O)Nc1ccc2c(c1)C(=O)N([C@H](C)CO)C[C@H](C)[C@H](CN(C)C(=O)Nc1ccccc1)OCCCC[C@H](C)O2, O=C(C[C@@H]1C=C[C@@H](NC(=O)C2CCC2)[C@@H](CO)O1)NCCCN1CCOCC1, Cc1noc(C)c1NC(=O)N(C)C[C@@H]1OCCCC[C@H](C)Oc2ccc(NC(=O)C3CCCCC3)cc2C(=O)N([C@H](C)CO)C[C@H]1C, CC(C)CC#Cc1ccc2c(c1)O[C@@H](CN(C)C(=O)c1cnccn1)[C@@H](C)CN([C@H](C)CO)S2(=O)=O, COc1ccc(S(=O)(=O)N(C)C[C@@H]2Oc3c(NC(=O)Nc4cccc5ccccc45)cccc3C(=O)N([C@H](C)CO)C[C@@H]2C)cc1, C[C@@H]1CN([C@@H](C)CO)C(=O)c2cc(NC(=O)Nc3ccc(F)cc3)ccc2O[C@H]1CN(C)Cc1ccc(C(F)(F)F)cc1, NCCNC(=O)c1nc(-c2ccc(Br)o2)no1, COc1ccc(NC(=O)N(C)C[C@H]2OCCCC[C@H](C)Oc3ccc(NS(=O)(=O)c4c(C)noc4C)cc3C(=O)N([C@@H](C)CO)C[C@H]2C)cc1, COc1ccc(CN(C)C[C@H]2Oc3ccc(NC(=O)Nc4cccc5ccccc45)cc3CC(=O)N([C@H](C)CO)C[C@H]2C)cc1, COc1ccc([C@H]2CC=CC[C@H](C)Oc3ccccc3C(=O)N(C)[C@@H](Cc3ccccc3)C(=O)N2)c(OC)c1
